# Data published in PubChem BioAssay AID686970 (National Center for Advancing Translational Sciences (NCATS), 2013).
# Screen size: about 360,000 compounds; about 6,000 (1.7%) were called active. The shares of active, inactive and inconclusive entries below differ from those in the screen. Calls come from the whole dose curve; as a rule, active = well fitted cell-killing curve with a large enough effect; inconclusive = small, poorly fitted or top-dose-only effect, or effect the other way; inactive = flat fitted curve, though single readings scatter. No potency is given beside an inconclusive call; the fits are too rough.
# Assay: qHTS for induction of synthetic lethality in tumor cells producing 2HG: qHTS for the HT-1080-NT fibrosarcoma cell line;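 note: NT is the 2HG producing partner of a matched IDH1 knockdown line; nearly all actives have a fitted effect of over 55% in size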;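 for activity, negative = less viability: 0% = DMSO-treated cells and -100% = media-only wells without cells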
# Conditions: HT-1080-NT fibrosarcoma viability, CellTiter-Glo ATP luminescence, 48 h; activity, negative = less viability: at 46.1 µM (top of the series) unless noted
# In short: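 Viability by CellTiter-Glo luminescence after 48 h compound exposure at 37C of HT-1080-NT cells (750/well, RPMI, 5% FBS). % activity scaled between DMSO wells and medium-only wells, then curve-fitted and categorized by curve class.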
# Potency is the fitted concentration of half-maximal effect; tags give direction and shape of the fitted curve.
Compound,Potency,"activity, negative = less viability"
COc1ccccc1C(CC(=O)Nc1ccc(C)c(C)c1)c1ccc(OC(C)C)cc1 (stereo not given),"inconclusive [cytotoxic, single point]",
COc1ccc(N2CCN(C(=S)Nc3ccc(C)cc3C)CC2)cc1,inactive,
Cc1ccc(C(OCC(O)CNC(CO)C(O)c2ccc([N+](=O)[O-])cc2)c2ccccc2)cc1 (stereo not given),active: 20.6 µM,
CN1CCN(C(=S)NC(=O)/C=C/c2cccc3ccccc23)CC1,active: 10 µM,
Cc1nn(Cc2ccc(F)cc2)c(C)c1NC(=O)c1nn(C)cc1Cl,inactive,
O=C1CN(C(=O)c2cc3ccccc3oc2=O)C(c2ccc(F)cc2)c2cc(F)ccc2N1 (stereo not given),inactive,
CCOc1cc(C(=O)OCC(=O)NCc2ccco2)cc(OCC)c1OCC,inactive,
O=S(=O)(c1cccs1)N1CCN(c2ccnc3cc(Cl)ccc23)CC1,"inconclusive [cytotoxic, partial curve]",
Cc1ccc(NP(=O)(c2ccc(N(C)C)cc2NC(=O)c2cccs2)N2CCOCC2)cc1Cl (stereo not given),inactive,
CCCCCCC(=O)Nc1ccc(C(=O)N/N=C/c2cccnc2)cc1,active: 23.1 µM,
COc1cccc(C(=O)N/N=C/C(Br)=C/c2ccccc2)c1,"inconclusive [cytotoxic, partial curve]",
COc1ccc(OC)c2c1C(=O)C(Cl)=C(Cl)C2=O,"inconclusive [cytotoxic, full curve]",
Cc1ccc(S(=O)(=O)Nc2ccccc2/C=N/c2nc3ccccc3n2C(C)C)cc1,active: 18.4 µM,
CCC(=O)N(C1=C(NC)C(=O)c2ccccc2C1=O)C(C)C,active: 4.61 µM,
COc1ccc(C(=O)Nc2ccc(C3(C#N)CCCC3)cc2)cc1OC,,inconclusive: -30.5% [cytotoxic]
Cc1cccc(NC(=O)c2nc[nH]c2C(=O)N[C@@H](Cc2ccccc2)C(=O)OC(C)(C)C)c1,"inconclusive [cytotoxic, single point]",
CCSC1(SCC)N=C(N)C2(C#N)C(c3ccc(OC)c(OC)c3OC)C12C#N (stereo not given),"inconclusive [cytotoxic, single point]",
Cc1ccccc1OCC(=O)Nc1ccc(N2CCN(C(=O)C(C)C)CC2)c(Cl)c1,"inconclusive [cytotoxic, partial curve]",
OC(c1ccc(-c2ccccc2)cc1)c1ncc(-c2ccccc2F)[nH]1 (stereo not given),"inconclusive [cytotoxic, single point]",
CCN(CC)Cc1c(O)ccc2c([N+](=O)[O-])c(C)n(-c3ccc(OC)cc3)c12,"inconclusive [cytotoxic, partial curve]",
COc1cc(NC(=O)CSc2nc3[nH]c(=O)cc(O)c3s2)cc(OC)c1OC,inactive,
CCC(=O)c1ccc(OCC(=O)OCC(=O)Nc2sccc2C(N)=O)cc1,inactive,
COC(=O)c1ccc(N2CCOCC2)c(NC(=O)c2ccco2)c1,inactive,
CN1CCN(c2ccc(NC(=O)c3ccc(-c4cccc([N+](=O)[O-])c4)o3)cc2)CC1,"inconclusive [cytotoxic, single point]",

Compound,Potency,"activity, negative = less viability"
CCc1ccc(NC(=O)CSc2nc3n[nH]c(C)c3c(=N)n2-c2cccc(OC)c2)cc1,"inconclusive [cytotoxic, single point]",
Cc1cc(C(=O)N/N=C/c2cc(Br)ccc2OC(=O)c2ccccc2Cl)n[nH]1,"inconclusive [cytotoxic, single point]",
COc1ccc(CNC(=S)Nc2cccc(OC)c2)cc1,inactive,
CN(CC(=O)Nc1ccc(Cl)c(C(F)(F)F)c1)C(=O)CCCNC(=O)c1ccc(Cl)cc1,"inconclusive [cytotoxic, single point]",
CCOc1cc(/C=N/N=C(\N)c2nonc2N)cc(Br)c1OCc1cccc2ccccc12,active: 23.1 µM,
Cc1cccc2cc3c(NC(=O)C(C)(C)C)nn(CC(C)C)c3nc12,inactive,
c1ccc(CNc2nc(-c3cccnc3)nc3ccccc23)cc1,inactive,
Cc1ccc(C)c(Cn2nc(-c3cc(C)ccc3C)ccc2=O)c1,"inconclusive [cytotoxic, single point]",
Cc1ccc(NC(=O)CCn2nnc3ccccc32)cc1,"inconclusive [rising, partial curve]",
CCc1ccc(Nc2cnn(-c3nc4ccccc4s3)c(=O)c2Cl)cc1,inactive,
COc1ccc(C2CC(c3ccc4ccccc4c3)=NN2C(=O)CN2CCC(C(N)=O)CC2)cc1 (stereo not given),"inconclusive [cytotoxic, single point]",
CCOC(=O)CCCc1ccc(/C(C)=N/NC(N)=S)cc1,active: 16.4 µM,
Cn1nnc2c[n+](CC(=O)c3ccc4ccccc4c3)cc(Br)c21,"inconclusive [cytotoxic, single point]",
COCCNC(=O)CC(=O)N/N=C/c1ccc(C(=O)OC)cc1,"inconclusive [rising, single point]",
Cc1cc(C(=O)COC(=O)C2=COCCO2)c(C)n1-c1ccc2c(c1)OCO2,inactive,
S=C(Nc1ccccc1)Nc1ccc(Cl)cn1,inactive,
COc1ccc(/C=C/CN2CCN(Cc3ccc(C)cc3)C(CCO)C2)cc1 (stereo not given),"inconclusive [rising, single point]",
C=C1C(=O)[C@@]23[C@H](O)C[C@@H]4C(C)(C)CC[C@H](O)[C@@]4(C)[C@@H]2CC[C@@H]1[C@H]3O,active: 14.6 µM,
CCOC(=O)c1sc2nc(C)n(CC(=O)NCC3CCCO3)c(=O)c2c1C (stereo not given),inactive,
COc1ccc(OC)c(-c2c3cc(O)c(=O)cc-3oc3cc(O)c(O)cc23)c1,"inconclusive [cytotoxic, single point]",
CCc1nc2ccc(C(=O)NCCCn3ccnc3)cn2c1N(CC)Cc1cccc(Br)c1,"inconclusive [cytotoxic, partial curve, poor fit]",
FC(F)(F)c1nc2ncc(Cl)cc2[nH]1,,inconclusive: -34.5% [cytotoxic]
OC(c1cc(Cl)cc(Cl)c1)c1ncc(-c2ccccc2C(F)(F)F)[nH]1 (stereo not given),"inconclusive [cytotoxic, single point]",
Cc1nc(C2CCCCC2)c(-c2ccccc2)c(N2CCOC2=O)c1C,"inconclusive [cytotoxic, single point]",

Compound,Potency,"activity, negative = less viability"
CC(CCCC(C)(C)O)CC1C2=C(CCCC2=O)OC2=C1C(=O)CCC2 (stereo not given),"inconclusive [rising, single point]",
O=C1/C(=N\S(=O)(=O)c2cccs2)C([n+]2cccc(Cc3ccccc3)c2)=C([O-])c2ccccc21,active: 5.17 µM,
CN(C)S(=O)(=O)c1ccc(N2CCCC2)c(C(=O)NNC(=O)COc2ccccc2Cl)c1,inactive,
CCN(CC)c1ccc(/C=N/NC(=O)Cc2nnc(NC(=O)Nc3ccccc3)s2)cc1,active: 20.6 µM,
O=C1c2cccc3cccc(c23)C(=O)N1CCN1CCN(CC(O)COCc2ccc(Cl)cc2)CC1 (stereo not given),active: 20.6 µM,
COc1ccc(Br)cc1CNc1ccc(O)cc1,"inconclusive [cytotoxic, single point]",
CC(=O)OCC(=O)[C@@]12OC3(CCCC3)O[C@@H]1C[C@H]1[C@@H]3CCC4=CC(=O)C=C[C@]4(C)[C@@]3(F)[C@@H](O)C[C@@]12C,"inconclusive [cytotoxic, single point]",
O=C(O)c1cc(-c2ccc(/C=N/NC(=S)Nc3ccccc3)o2)ccc1Cl,inactive,
NCCCC[C@@H](C(=O)N1CCNCC1)n1cc([C@@H](N)CO)nn1,"inconclusive [rising, single point]",
CC(=O)c1ccc(Nc2cc(C)nc3ccc(C)cc23)cc1,active: 20.6 µM,
N#Cc1c(-c2ccccc2)[nH]c(=S)[nH]c1=O,inactive,
CCOC(=O)c1c(NC2OC(=O)c3c2ccc(OC)c3OC)sc(C(=O)OC(C)(C)C)c1C (stereo not given),"inconclusive [cytotoxic, single point]",
COC(=O)c1ccc(NC(=O)CCC(=O)c2ccc(F)cc2)cc1,"inconclusive [cytotoxic, partial curve]",
CCCCNC(=O)N(O)C1N(/N=C/c2cccnc2)C(=S)SC1(C)C (stereo not given),"inconclusive [rising, single point]",
CC(C)C(=O)Nc1cccc(NC(=S)NC(=O)C(c2ccccc2)c2ccccc2)c1,"inconclusive [cytotoxic, single point]",
CC(C)(C)NC(=O)C(c1ccc(C(F)(F)F)cc1)n1c(=O)c(-c2cc3ccccc3[nH]2)nc2ccccc21 (stereo not given),"inconclusive [cytotoxic, single point]",
COc1ccc(CCN(C(=O)C(F)(F)F)C(C(=O)NC2CCCCC2)c2ccc(C)s2)cc1OC (stereo not given),inactive,
CCc1ccc(Nc2n[n+](-c3ccccc3)c(-c3ccc(SC)cc3)s2)cc1,"inconclusive [cytotoxic, single point]",
Cc1ccc2ccccc2c1C(O)c1ncc(-c2cccc(C(F)(F)F)c2)[nH]1 (stereo not given),"inconclusive [cytotoxic, single point]",
COc1ccc(Cn2c(=O)[nH]c3cc(C(=O)N4CCN(c5ccccc5OC)CC4)ccc3c2=O)cc1,"inconclusive [cytotoxic, partial curve]",
Cc1cc(C(=O)N/N=C/c2ccc([N+](=O)[O-])o2)c(C)o1,"inconclusive [cytotoxic, single point]",
Cc1ccsc1/C=C/c1ccc2cccc(O)c2n1,active: 12.6 µM,
